Source: the supplement of paper PMC4967469

Experiments:
Assay in all cases: Viability of human cancer cell lines after 72 h of drug (GDSC screen)
Doxorubicin = compound: COc1cccc2c1C(=O)c1c(O)c3c(c(O)c1C2=O)C[C@@](O)(C(=O)CO)C[C@@H]3O[C@H]1C[C@H](N)[C@H](O)[C@H](C)O1 [Doxorubicin]; details: top dose 1.024 µM
Protocol: (§1)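 Human cancer cell lines in 384-well plates, medium with 10% serum, drug for 72 h over a 256-fold dose range (nine 2-fold or five 4-fold steps up to the top dose). Adherent lines were fixed and stained with the nucleic acid dye Syto60, suspension lines read with resazurin; signal relative to control wells, capped at 0 and 100%. One two-parameter sigmoid per drug and line, fitted in a mixed model over all curves with the slope shared within a line.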

17-AAG = compound: C=CCNC1=C2C[C@@H](C)C[C@H](OC)[C@H](O)[C@@H](C)/C=C(\C)[C@H](OC(N)=O)[C@@H](OC)/C=C\C=C(/C)C(=O)NC(=CC1=O)C2=O [17-AAG]; details: top dose 1 µM
Protocol: as §1

UNC1215 = compound: O=C(c1ccc(C(=O)N2CCC(N3CCCC3)CC2)c(Nc2ccccc2)c1)N1CCC(N2CCCC2)CC1 [UNC1215]; details: top dose 1 µM; top dose inferred
Protocol: as §1

TG101348 = compound: Cc1cnc(Nc2ccc(OCCN3CCCC3)cc2)nc1Nc1cccc(S(=O)(=O)NC(C)(C)C)c1 [TG101348]; details: top dose 10.24 µM
Protocol: as §1

VX-11e = compound: Cc1cnc(Nc2ccc(F)cc2Cl)nc1-c1c[nH]c(C(=O)N[C@H](CO)c2cccc(Cl)c2)c1 [VX-11e]; details: top dose 5.12 µM; top dose inferred
Protocol: as §1

Dimethyloxalylglycine = compound: COC(=O)CNC(=O)C(=O)OC [Dimethyloxalylglycine]; details: top dose 4000 µM; top dose inferred
Protocol: as §1

BMX-IN-1 (QL-XII-61) = compound: C=CC(=O)Nc1cc(-n2c(=O)ccc3cnc4ccc(-c5ccc(NS(C)(=O)=O)cc5)cc4c32)ccc1C [BMX-IN-1 (QL-XII-61)]; details: top dose 10 µM; top dose inferred
Protocol: as §1

Vismodegib = compound: CS(=O)(=O)c1ccc(C(=O)Nc2ccc(Cl)c(-c3ccccn3)c2)c(Cl)c1 [Vismodegib]; details: top dose 10 µM; top dose inferred
Protocol: as §1

BIX02189 = compound: CN(C)Cc1cccc(N=C(c2ccccc2)c2c(O)[nH]c3cc(C(=O)N(C)C)ccc23)c1 [BIX02189]; details: top dose 20 µM; top dose inferred
Protocol: as §1

CCT018159 = compound: CCc1cc(-c2n[nH]c(C)c2-c2ccc3c(c2)OCCO3)c(O)cc1O [CCT018159]; details: top dose 10 µM; top dose inferred
Protocol: as §1

OSI-027 = compound: COc1cccc2cc(-c3nc([C@H]4CC[C@H](C(=O)O)CC4)n4ncnc(N)c34)[nH]c12 [OSI-027]; details: top dose 20 µM
Protocol: as §1

Cell Line | AUC (Doxorubicin) | IC50 (Doxorubicin) [µM] | AUC (17-AAG) | IC50 (17-AAG) [µM] | AUC (UNC1215) | IC50 (UNC1215) [µM] | AUC (TG101348) | IC50 (TG101348) [µM] | AUC (VX-11e) | IC50 (VX-11e) [µM] | AUC (Dimethyloxalylglycine) | IC50 (Dimethyloxalylglycine) [µM] | AUC (BMX-IN-1 (QL-XII-61)) | IC50 (BMX-IN-1 (QL-XII-61)) [µM] | AUC (Vismodegib) | IC50 (Vismodegib) [µM] | AUC (BIX02189) | IC50 (BIX02189) [µM] | AUC (CCT018159) | IC50 (CCT018159) [µM] | AUC (OSI-027) | IC50 (OSI-027) [µM]
HSC-39 (stomach, suspension) | 0.99 | > 1.02 | 0.481 | 0.056 | 0.991 | > 1 | 0.586 | 1.06 | 0.99 | > 5.12 | 0.851 | 2420 | 0.981 | > 10 | 0.952 | > 10 | 0.989 | > 20 | 0.883 | 8.11 | 0.69 | 3.91
KYSE-220 (oesophagus, adherent) | 0.549 | 0.0879 | 0.913 | > 1 | 0.983 | > 1 | 0.787 | 4.72 | 0.965 | > 5.12 | 0.721 | 1100 | 0.969 | > 10 | 0.985 | > 10 | 0.903 | > 20 | 0.843 | 7.65 | 0.709 | 5.06
LS-513 (large intestine, adherent) | 0.923 | > 1.02 | 0.81 | 0.552 | 0.986 | > 1 | 0.799 | 5.15 | 0.557 | 0.462 | 0.778 | 1690 | 0.965 | > 10 | 0.987 | > 10 | 0.813 | 11.3 | 0.808 | 5.44 | 0.718 | 5.31
A498 (kidney, adherent) | 0.931 | > 1.02 | 0.589 | 0.124 | 0.976 | > 1 | 0.863 | > 10.2 | 0.975 | > 5.12 | 0.64 | 741 | 0.968 | > 10 | 0.977 | > 10 | 0.971 | > 20 | 0.949 | > 10 | 0.807 | 17.2
RL (B-cell lymphoma, suspension) | 0.911 | > 1.02 | 0.938 | > 1 | 0.986 | > 1 | 0.816 | 5.09 | 0.938 | > 5.12 | 0.651 | 631 | 0.969 | > 10 | 0.988 | > 10 | 0.86 | 14.6 | 0.889 | 9.83 | 0.162 | 0.131
NALM-6 (B-cell leukaemia, suspension) | 0.29 | 0.0184 | 0.97 | > 1 | 0.99 | > 1 | 0.429 | 0.422 | 0.638 | 0.72 | 0.32 | 86.6 | 0.938 | > 10 | 0.946 | > 10 | 0.741 | 5.29 | 0.935 | > 10 | 0.172 | 0.161
CL-11 (large intestine, adherent) | 0.987 | > 1.02 | 0.937 | > 1 | 0.984 | > 1 | 0.987 | > 10.2 | 0.949 | > 5.12 | 0.864 | > 4000 | 0.983 | > 10 | 0.941 | > 10 | 0.985 | > 20 | 0.967 | > 10 | 0.908 | > 20
RVH-421 (melanoma, adherent) | 0.636 | 0.175 | 0.666 | 0.216 | 0.968 | > 1 | 0.97 | > 10.2 | 0.689 | 1.32 | 0.707 | 1200 | 0.975 | > 10 | 0.98 | > 10 | 0.891 | > 20 | 0.907 | > 10 | 0.893 | > 20
KURAMOCHI (ovary, adherent) | 0.572 | 0.104 | 0.885 | > 1 | 0.976 | > 1 | 0.814 | 6.7 | 0.927 | > 5.12 | 0.731 | 1280 | 0.98 | > 10 | 0.984 | > 10 | 0.962 | > 20 | 0.876 | > 10 | 0.749 | 7.4
EC-GI-10 (oesophagus, adherent) | 0.965 | > 1.02 | 0.871 | 0.929 | 0.973 | > 1 | 0.989 | > 10.2 | 0.973 | > 5.12 | 0.929 | > 4000 | 0.981 | > 10 | 0.987 | > 10 | 0.972 | > 20 | 0.796 | 4.64 | 0.984 | > 20
LXF-289 (lung adenocarcinoma, adherent) | 0.439 | 0.0437 | 0.35 | 0.0242 | 0.984 | > 1 | 0.79 | 4.49 | 0.982 | > 5.12 | 0.508 | 263 | 0.976 | > 10 | 0.987 | > 10 | 0.975 | > 20 | 0.952 | > 10 | 0.757 | 6.77

A lower IC50 marks a more sensitive line; a limit (>, <) means that the fit lies beyond the doses tested. The AUC spans the tested range (256-fold, ending at the top dose) of the same fit; it is 1 without any effect and falls as sensitivity rises. For some assays here: An inferred top dose comes from the curve model; the source does not state it.
